Source: the supplement of paper PMC11417369
± gives the standard deviation of the averaged measurements. The list shows a part of the results.

system: PfAP2-LT AP2 domain (GST-tagged); assay: gcPBM binding intensity (ln(normalized median fluorescence intensity)); higher = stronger DNA binding
Method in brief: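 In this array assay, P. falciparum DNA-binding domains with a GST tag, expressed in E. coli, were applied for 1 h to primer-extended double-stranded 36-bp intergenic genomic probes and negative controls on an Agilent 4 × 180k array. Bound protein was visualised with Alexa488 anti-GST antibody at 488 nm. Binding intensity is the highest Masliner-normalised natural-log median intensity across replicate spots of either probe orientation.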

Row | Sequence | gcPBM binding intensity (ln)
1 | TAACCACAATTTTAATGTACATATATATTTATATAT [XGTACX_site8968] | 8.72 ± 0.56
2 | TATATACATATATATATATGTATAGATAGATACATT [CACACA_negctrl_site1511] | 8.8 ± 0.36
3 | TTTTGAAAAAATTTTTATAAAAGAATAAAATTATTA [XGTACX_negctrl_site570] | 7.92 ± 0.42
4 | AATATTTTACAATACACATGCAAATAATATTCTAAA [TGCATGCA_site618] | 8.61 ± 0.38
5 | ATATTATTTATGTATGCATGCGGCGAAATGGGCTTG [TGCATGCA_site28] | 9.06 ± 0.29
6 | AATGGGTTACACATATGTACATAAAATATAAAAAAT [XGTACX_site3440] | 9 ± 0.58
7 | TCTCATTTTCCCTAAAAAAAAAAATAAATAAAAATA [TGCATGCA_negctrl_site580] | 7.98 ± 0.38
8 | TTTTTCCATATTGTAGCATGCAGTATATATATCATG [TGCATGCA_site530] | 8.9 ± 0.35
9 | ATTTATATATAAATGTGTACATATATATATATAAAC [XGTACX_site7592] | 9.04 ± 0.38
10 | TACCATGTTCAAATTACACACATATAATGCAATATA [CACACA_site7034] | 8.99 ± 0.37
11 | CTGAAATTAACAAAAGTGCATAAAAATAAAAAATAT [GTGCAC_site9652] | 8.9 ± 0.47
12 | ATTGTAAGTAAACACACACACATATATCTGTATTTA [CACACA_site4542] | 9.66 ± 0.37
13 | TCACATTTTGGACACGTGCACATATATTTGATACAT | 9.05 ± 0.45
14 | AAAATTAATTATTACAAAAATGAAAAGACATATTTT [GTGCAC_negctrl_site735] | 8.43 ± 0.44
15 | TTTTTTTACAACATTACACACAAATATTCTGGGTTA [CACACA_site3755] | 9.01 ± 0.39
16 | AATATTATATTAAAATGTACAAAAATGAATTACTTT [XGTACX_site1473] | 8.63 ± 0.51
17 | CAATGCAAGGCTTAAAAAAATGGGCATATTATATAT [GTGCAC_negctrl_site304] | 8.67 ± 0.58
18 | AAAAAGGAAATTTACACACACATATAATATACATTA [CACACA_site3296] | 9.31 ± 0.33
19 | ATTTACCAGACCATATGTACATACATAAAACACACA [XGTACX_site3788] | 9.2 ± 0.43
20 | GGAATTGAAAAATCAGCACACACACTAATACATACA [CACACA_site9059] | 9.69 ± 0.3
21 | AAATGGCAATAATGGACACACAAATGTTGTTATATA [CACACA_site2819] | 9 ± 0.51
22 | AATAATTGTTAAAGGTGTACAATACCTACATAAGAA [XGTACX_site4215] | 8.88 ± 0.5

Row | Sequence | gcPBM binding intensity (ln)
23 | AATATTTCTCATTTTGTGCACTGAAAAATGTAATAT | 8.7 ± 0.33
24 | TCATATATCCTTATCACACATATAATAAATTCCCTT [CACACA_site4457] | 8.73 ± 0.41
25 | TTCTTTGCTTTTCAAACACACAAAAGTTATTATAGT [CACACA_site6390] | 8.82 ± 0.49
26 | GTTCTACAAGCCACTGCATGCTGATATAGAATAAAT [TGCATGCA_site138] | 8.73 ± 0.43
27 | ATATGATTATTATTATATAAATTATAAAGTCTAATA [GTGCAC_negctrl_site586] | 8.28 ± 0.31
28 | TTTTCATTCAATTATATTTATATATATATATATATA [GTGCAC_negctrl_site538] | 8.86 ± 0.23
29 | TACATGTATAAATAAGCACACATGTGGATATGTACA [CACACA_site93] | 9.36 ± 0.35
30 | CAAAATATTTTTATAACACACATATATATAATGTGC [CACACA_site4767] | 8.82 ± 0.39
31 | ACTTATATATTATGTTGTCCGTCCATTCTCTTTATC [XGTACX_site3769] | 9.22 ± 0.5
32 | AAAATTTAAAGCATGACACACAATTATATTATGTGC [CACACA_site3435] | 9.4 ± 0.15
33 | TTGTGAAATAAAATTTGTACACACATATATATATAT [XGTACX_site1078] | 9.45 ± 0.12
34 | TTCTTTTCTTTAGTAGAATGTAAAAAATATAATCTT [XGTACX_negctrl_site290] | 8.26 ± 0.43
35 | TTTTTTTTGGAATTCACACAAATATAACATGGGTAT [CACACA_site5185] | 8.7 ± 0.38
36 | TACACAAGGGGAAAAATATATATATATATATATATA [TGCATGCA_negctrl_site217] | 9.88 ± 0.028
37 | TAAAAGTATATATATACACACATAAATATATATGTA [CACACA_site663] | 9.04 ± 0.4
38 | TAAAAAATTTTATATTCACACACATATATATATATA [CACACA_site8109] | 9.31 ± 0.16
39 | TTTTATAAGGTGAAAAGTACATATAACTTATTTTAC [XGTACX_site5572] | 8.46 ± 0.45
40 | ATCTTTCCTATTTGTAGTACAAAAAAAAAAAAAAAA [XGTACX_site5485] | 8.18 ± 0.49
41 | TATTGTCTATAATAAACACACAATATTAAAAATATA [CACACA_site6624] | 8.62 ± 0.47
42 | TTAAATGATGTAAACACACACATATACATTATTATA [CACACA_site3162] | 9.19 ± 0.35
43 | AAAAAAAAAAAAAAAACACACATACATACATACATA [CACACA_site6125] | 9.26 ± 0.41
44 | AGAAAAGTGATATATACACACTTATATTTATTTATA [CACACA_site7350] | 8.8 ± 0.47

Row | Sequence | gcPBM binding intensity (ln)
45 | TTTTTTTTTTTTTTTGCACACACCATATTTATAGAA [CACACA_site3310] | 9.22 ± 0.45
46 | TTATTTTATTTTTTTGTGCACATATATATTTATAAA [GTGCAC_site9615] | 8.81 ± 0.43
47 | ACGTGTGATTATAATTGTACTTTAATGTAAGAATGA [XGTACX_site1109] | 9.12 ± 0.4
48 | ATATATATATATATATGTACTTATAATAATATTCAA [XGTACX_site2593] | 9.29 ± 0.12
49 | CAAAAGAAGGTAAACACACACACACGCATACAAAAA [CACACA_site7724] | 9.94 ± 0.43
50 | ATAGAATAAAACTATACACACCTATATTTAAACATA [CACACA_site5106] | 8.94 ± 0.47
51 | CAAAACCTTATATGTACACACATATACATCACCCTT [CACACA_site3170] | 9.36 ± 0.47
52 | ATTTCTCTATCGTAATGTACATAAAAAATGAAAAAA [XGTACX_site1201] | 8.51 ± 0.51
53 | TTTTCTAAATAAATAGTGCATTTATTATATATACAT [GTGCAC_site9766] | 8.71 ± 0.42
54 | TGTTTATTTTTAAAAAGTACATATTTAAAAAACTTC [XGTACX_site271] | 8.17 ± 0.42
55 | TTGTATTATATTGTATTATGTTTAAATGAAAAAAAA [CACACA_negctrl_site662] | 8.19 ± 0.4
56 | TATTGTTACTTTATATGTACTAATTAAACATATACA [XGTACX_site6363] | 8.72 ± 0.46
57 | AAATATTAGTAACACAGACACACAAAAAAAAAAAAA [CACACA_site2175] | 8.95 ± 0.58
58 | AAAAAAAAAAAAAAAAGTACACAAATTTTAAAAATT [XGTACX_site3006] | 8.48 ± 0.59
59 | ATAAAATATAAAAATTGTACGATAATAATAGTAGGA [XGTACX_site8951] | 8.74 ± 0.42
60 | AACACTTCTTATTTATGTACTTAATTCCCAACGGAA [XGTACX_site4818] | 8.64 ± 0.5
61 | AATTACTACATAAATACATGCATAATTATATATATA [TGCATGCA_site783] | 8.73 ± 0.36
62 | TATCTCTTCATATTGTGTACATATTTTTATTTATTG [XGTACX_site4038] | 9.12 ± 0.54
63 | AAATGAATAAATAAGACACACACGAAAATAAGTAAA [CACACA_site71] | 9.44 ± 0.41
64 | TTATAAAATTACTTGGTGCATTAGAATATTTCAATA | 8.3 ± 0.41
65 | TGATCAGATAGACACACACACAAAAAAAAAAAAAAA [CACACA_site7805] | 9.43 ± 0.59
66 | AAATATATATATATATATATATATATATATATATAT [CACACA_negctrl_site677] | 9.52 ± 0.54

Row | Sequence | gcPBM binding intensity (ln)
67 | TTGCATTTTCTAGTAACACACAATTAGCGTTGCTGT [CACACA_site3594] | 9.15 ± 0.51
68 | TAACAAAAAGGGAACACATGCGCTCTTTATTTATTT [TGCATGCA_site620] | 9.03 ± 0.4
69 | TATAGAAGCATTCACACACACACATACATACACATA [CACACA_site1466] | 10 ± 0.3
70 | ATAATATTAATATGTACACACCTTAATCCTTAAAAG [CACACA_site7640] | 8.78 ± 0.37
71 | GTATTTATATGATTAACACACATATGGGTATTAATA [CACACA_site4853] | 8.89 ± 0.26
72 | TATACCTGAATTAAAAGTACATGTATATATTTTCCC [XGTACX_site3594] | 8.73 ± 0.38
73 | ATAATTTTTTAAGTGTGTACTAAAATGTGTATTTTA [XGTACX_site6227] | 8.8 ± 0.48
74 | ATAAATGACAAATTAACACACATATATTATAGATAT [CACACA_site7770] | 9.07 ± 0.42
75 | AAAATGTGATATGTAAATATATATGTATGTATATAT [CACACA_negctrl_site1748] | 8.92 ± 0.38
76 | ATCTATATTTAATTTACACACAAAAAAAATTGTTGG [CACACA_site6582] | 8.96 ± 0.38
77 | TAATGCATTTTCGCATGTACATATTTCTCTTTATAT [XGTACX_site8915] | 8.79 ± 0.49
78 | TCTTAATATCGTTTCTCACACATATACAAACATAAA [CACACA_site5700] | 8.54 ± 0.4
79 | TATTATAGAAATTTAATGTTGGACAAAAAAATGAAA [CACACA_negctrl_site1351] | 8.44 ± 0.47
80 | AATATATGAATTATATGTACATATAGATAAGTCACA [XGTACX_site7637] | 8.93 ± 0.42
81 | AGAGAGAAAGCTATAACATGCAACAATTTTTAGAAC [TGCATGCA_site596] | 8.9 ± 0.54
82 | AAATTATTTATTTTATGTACATATTATTAAAGTTAA [XGTACX_site552] | 8.58 ± 0.42
83 | AAAAAAAAGAAAAACACACACATATATATATAGAAT [CACACA_site1006] | 9.64 ± 0.45
84 | TTTCCCTTGTTGTAAACATGCACAATATTTAGGTAT [TGCATGCA_site49] | 8.88 ± 0.38
85 | TATATTTATAGGTATACACACATATGTATGTTATGT [CACACA_site7824] | 9.41 ± 0.45
86 | TTATGTATTTATATAAATATAAATATATATATATAT [CACACA_negctrl_site774] | 8.64 ± 0.34
87 | TCATTTTATTTTTTCACACACACATCTATATTTATA [CACACA_site7547] | 9.38 ± 0.32
88 | ACAAAAATAAACTATAGTACACACTTATTATTATGA [XGTACX_site5680] | 8.82 ± 0.46
